The source gives no read counts; variants with many changes may rest on few reads.

To fix the notation:
B1: LINE1-mini (parent)
chain: GGCAGAGCUCAACACAGCGUGGCAAAGUGGCUGUGGCUAGACUGCC

The data set covers variants of B1. Briefly: self-cleavage, relative activity (ratio to wild type); higher = more cleavage; in vitro, sequencing; the parent is a self-cleaving ribozyme.
G1U C3U A12U U20G A24G: the self-cleavage stood at 0.19.
The figure for G17C A24G G35U is 0.11; for U20C G29C C31U G35A it is 0.08.
For the variant C23U A25U C37G A41G, the self-cleavage is 0.02.
For G17U C18G U28C C45U the value was 0.1; for U9C C13G A24U G30C C46U, 0.02; for U9C A11G C15A G22A U32A G44U, 0.01.
On to G2U A6C G7U A24G C42U G44A, for which the self-cleavage was 0.08.
With A12U C31A G35C, the self-cleavage came out at 0.02.
In the case of A12C G17A G19A A24C C37A, the self-cleavage worked out at 0.
For C3G A14G G19A A26C, the self-cleavage came to 0.15.
The figure for G17U G22U G35A is 0.02; for A4G A25U G44U it is 0.07; for C18A G30C U34C C45A it is 0.01.
In the case of A16U G17A C37A, the self-cleavage was found to be 0.02.
Consider C10A G21U G36U, for which the self-cleavage was determined as 0.02.
Turning to G17A U20G U32A, the self-cleavage was determined as 0.04.
For the variant G1U C3U C37U A39U G44A, the self-cleavage worked out at 0.04.
C13A C23A A24G: the self-cleavage was 0.1.
Consider G5C G21C A26U G27A G30C U32C G40A, for which the self-cleavage was 0.02.
As to G22A U28C G40U, the self-cleavage was 0.03.
As for A12C C23G A24G C45U, the self-cleavage worked out at 0.01.
The figure for A11C U20C G21C A25U A26G G40U is 0.01; for G2A G33A U34C it is 0.19.
As for C3U A4G U20G A26G A41U, the self-cleavage was 0.
Take C3A C10U C15U C18A C31A U38A C45U C46A: the self-cleavage came out at 0.1.
Consider A4U C15U A39G, for which the self-cleavage was found to be 0.07.
The figure for U20A C23U C37U is 0.04.
For G7U A12G A16U U20C C45G the value was 0.11.
Consider A24C A26G G44C, for which the self-cleavage worked out at 0.27.
For C10A A25U G40U the value was 0.01; for A11G A25C C42G U43G, 0.01; for A16G G17C G36U, 0.01.
For the variant G7U C31G G35U A39U, the self-cleavage turned out to be 0.02.
For G5A U20C G21A U34A U43A the value was 0; for C10A A14U G19U A26G A41G, 0; for G2A A12U C13U A16G G17U C23U C37U, 0.67.
Regarding C8G C10G G17A C31A, the self-cleavage amounted to 0.02.
The figure for C15G G44U C46G is 0.03; for A14C C31G G35U G44C C45A it is 0.02.
As for A6G U9A A24G G29C G33U, the self-cleavage came to 0.01.
As for A4G C10A U20A G21U, the self-cleavage was found to be 0.01.
Take A11C G22C U28A G33C: the self-cleavage is 0.02.
As for G1C U9G A11U G19A G40U, the self-cleavage worked out at 0.
For C15U A25U G40C, the self-cleavage worked out at 0.06.
For G7A G19C U28C, the self-cleavage stood at 0.03.
With G1U C3G A6C G33U C46U, the self-cleavage turned out to be 0.04.
In the case of A6G C8G G19C G27A U28C G44U, the self-cleavage was determined as 0.02.
Consider C13U C15A A16G G22U, for which the self-cleavage was 0.02.
Regarding C3U A6U U38A, the self-cleavage was determined as 0.19.
Take G2C A16G A24C A41U: the self-cleavage stood at 0.08.
Consider A6C U9G U28C, for which the self-cleavage amounted to 0.04.
As to G22C C23A U32G C37G A39C C42A C45A, the self-cleavage turned out to be 0.02.
In the case of G2A U34A G36A, the self-cleavage was found to be 0.05.
The figure for G2A C13A G27C U32G U34A is 0.05.
A6U A14C U28A: the self-cleavage turned out to be 0.15.
The figure for A6C C10U C31U is 0.03; for G2A C10A C13G G17A U20G G21A A26C it is 0.03; for G2U A16C G40A it is 0.02.
Take G1U C15U G44U: the self-cleavage worked out at 0.08.
G27A G29U C31G C37G U43C C45A: the self-cleavage was determined as 0.
G1U C13A G17C C31U C45U: the self-cleavage came out at 0.02.
Regarding C10A A16G G36U, the self-cleavage was 0.
The figure for G21A A25C G40C is 0.02; for A12U G21A G40U it is 0.55.
The figure for C18A G21U C37A C46A is 0.27; for A11C A14G U20A it is 0.02.
With U9C A14U A16U G27U, the self-cleavage was found to be 0.05.
For G7A A26C C31G, the self-cleavage stood at 0.02.
For the variant A4C U28G C37G, the self-cleavage came out at 0.03.
G1A G5A C10A G30U: the self-cleavage turned out to be 0.14.
As for G7U G17A G22A C45U, the self-cleavage amounted to 0.01.
For the variant A6C G22C G33C C37A A41G, the self-cleavage is 0.1.
As for G5A A12G C15G C18A U32C, the self-cleavage is 0.04.
On to U9C U28G G29A, for which the self-cleavage came to 0.1.
Consider C8G C13U G17U, for which the self-cleavage is 0.04.
Take U9C U20A C45A C46G: the self-cleavage turned out to be 0.03.
As to G5A A12C G17A G33A, the self-cleavage was 0.03.
As to A4C G7C C13A A16U A24C C31G, the self-cleavage is 0.03.
On to G33C G40U C46U, for which the self-cleavage stood at 0.04.
For C10G G27U C42A the value was 0.01.
Take A11U C13U G40C A41G: the self-cleavage worked out at 0.02.
As to G7U A25G G33U, the self-cleavage stood at 0.11.
Regarding C3G C13G C37U, the self-cleavage stood at 0.28.
As for C3G A12C A26U U28C, the self-cleavage amounted to 0.03.
For G7U C8A G19A G22U U38G the value was 0.01; for C10A A26U A39G, 0.03; for G2C G21A A25C G30C G35C, 0.08.
With U28A G30A C45G, the self-cleavage amounted to 0.64.
Consider U20A C23U U43A, for which the self-cleavage came to 0.01.
For the variant G5C C23U G27A C37U, the self-cleavage worked out at 0.01.
Consider C13G U20G A25U, for which the self-cleavage was determined as 0.19.
Consider U20G G21U U28C, for which the self-cleavage was 0.3.
Consider C3A A11U A16G C23A, for which the self-cleavage was 0.03.
For C10U A12C G17C the value was 0.04.
The figure for A6C A26G U28A is 2.56; for G30U U32C U34A it is 0.04.
With C15G U34C G35C G36C C46A, the self-cleavage is 0.
Turning to A4U A25G G29C U34G, the self-cleavage stood at 0.08.
Consider A6U U9A C15G C31U, for which the self-cleavage stood at 0.01.
As for C3A G22U G30U, the self-cleavage stood at 0.92.
In the case of C13G G19A G30C U38G A39C, the self-cleavage is 0.08.
As for C3G A16C G33C, the self-cleavage was found to be 0.07.
The figure for A4C C23U G27U G44C is 0.08; for C10A G22U G30U it is 0.01; for G5C C8A C10A U20C A41U it is 0.06.
Regarding G17U G29U U38C C45A, the self-cleavage was 0.04.
As for A6G U9A A11C U20C G35U, the self-cleavage is 0.01.
With C3U C8U A12C G35U C37U A41G, the self-cleavage was found to be 0.02.
Regarding G21A G22A G36C, the self-cleavage amounted to 0.29.
With C8G G19U A25C G36A C46U, the self-cleavage was found to be 0.06.
With G22C C23U C42A, the self-cleavage was 0.03.
With C15A G27A U32C G35A, the self-cleavage amounted to 0.06.
As to A14C G21C C45A, the self-cleavage was found to be 0.03.
Take G1U A12C A24G G33C: the self-cleavage was 0.
In the case of A24U U28C U34G, the self-cleavage was 0.25.
Turning to U9A G19C A25C, the self-cleavage was 0.09.
For C8U A26G G36C, the self-cleavage came out at 0.17.
For the variant C15G C23A G40A, the self-cleavage stood at 0.03.
As for A4U A6G G27U, the self-cleavage stood at 0.03.
For the variant U9G A11G C23A A24C C37A G40U, the self-cleavage came out at 0.04.
For the variant G2A C3A A6G C46U, the self-cleavage worked out at 0.28.
The figure for A4G C8A A26C is 0.44.
As to U9A C10G G19C G36U, the self-cleavage was 0.04.
As for G2C A16U G22C G33A U34C, the self-cleavage came to 0.02.
On to C8A U9A C15A A16U G33U G40A, for which the self-cleavage stood at 0.1.
Consider G2A C10U A14U C15U G21A G35U, for which the self-cleavage is 0.08.
Take G22A G29U C31A C37U U43G C45U: the self-cleavage was 0.16.
On to A14G G27A G36A, for which the self-cleavage came to 0.05.
Take G2C C31A U34A: the self-cleavage was 0.03.
Turning to A14U G17C C31G, the self-cleavage came to 0.01.
For C18U G19U U32G A39C, the self-cleavage came out at 0.01.
Take A14U G40C A41C C45U: the self-cleavage amounted to 0.05.
Turning to C23A U34A C42A, the self-cleavage was determined as 0.08.
As to G2A A6G U9G C10U A11C A16G, the self-cleavage came to 0.02.
Consider A14U G29A C45A, for which the self-cleavage worked out at 0.09.
As to G19A U38C A41G U43C, the self-cleavage was determined as 0.07.
As to G5A C8G A11C, the self-cleavage turned out to be 0.03.
With C3U A4C G35A A39C G40C U43A, the self-cleavage came to 0.08.
For G21U A25U U43G G44U the value was 0.39.
On to C8G A24C U28C G33U C37A G40C, for which the self-cleavage is 0.
As for G21U U32G C45G, the self-cleavage turned out to be 0.02.
The figure for G2U A11G C15U U20G G30U U34G G44A is 0.01; for G1C G5C G27C it is 0.01.
For A6G G7C U32A the value was 0.06; for C13U U20C C31G C46A, 0.01; for U32C G33U U38A, 0.01.
For the variant G2U G22C G36U, the self-cleavage was determined as 0.01.
For the variant U9C A24U G44U, the self-cleavage amounted to 0.01.
The figure for G7A G33A U34C C37U is 0.05.
In the case of G21C A25C C42A G44A, the self-cleavage was 0.14.
As for C3G G5A G35U C45U, the self-cleavage came to 0.15.
Turning to A16U U38A U43G C45U, the self-cleavage was determined as 0.03.
Take C13U A16U C46U: the self-cleavage is 0.14.
The figure for A6G C15U G22U A24U A41C is 0.06; for A14U C37G C42A it is 0.03.
Regarding G2A C18U G27U G35U, the self-cleavage was 0.1.
For the variant G2A A6U G17A G27C C42G, the self-cleavage stood at 0.09.
For C15G A16U G17A U28C U34G, the self-cleavage turned out to be 0.
Regarding C8A U9A G17U C23G G44A, the self-cleavage amounted to 0.01.
Consider G2C C37U G40A, for which the self-cleavage was found to be 0.42.
On to U9C C13U G35A C46G, for which the self-cleavage was 0.01.
For the variant G19C G27C G30U A39C C46U, the self-cleavage stood at 0.36.
The figure for A4G G5U C10U A39U is 0.04; for A16U U28G G35A C37A it is 0.02.
Regarding C3A G5A A6U A11C C15A G27C U34A, the self-cleavage is 0.02.
For G5U U28C C37U C46A the value was 0.
